The whole screen tested about 46,000 compounds, of which about 60 (0.1%) were called active. Roughly 3% stayed inconclusive and do not appear here. Calls come from the whole dose curve; as a rule, active = well fitted inhibition curve with a large enough effect; inconclusive = small, poorly fitted or top-dose-only effect; inactive = no such curve, though single readings can be large or run the other way. Some of the results follow.

The nature of the test: Primary qHTS assay for Inhibitors of ovarian cancer metastasis using an organotypic tumor microenvironment (TME) model.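 For activity change, negative = inhibition: plate controls were DMSO wells for no effect and tomatine positive control wells for full effect.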 Note: nearly all actives have a fitted effect of over 65% in size. The settings on record: SKOV3ip1-GFP adhesion/invasion on 3D omental model, fluorescence; series mostly up to 45.8 µM; activity change, negative = inhibition: at the top concentration. An outline of the steps:
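Primary human omental fibroblast/mesothelial 3D culture pre-formed 48 h. SKOV3ip1-GFP cells added with compounds (0.36-46 umol/L), incubated 2 h RT/16 h 37 C, fixed; GFP cells quantified at 488/509 nm.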
Background: Quantitative high-throughput screening tests each substance at several concentrations.
For `COc1cccc(C(=O)NCC(=O)OCc2cc(=O)n3c(C)csc3n2)c1`, the call was inactive. In the case of `CC(C)Cn1c(=O)c2sccc2n2c(CCCC(=O)NCCc3ccccc3)nnc12`, the “activity change, negative = inhibition” value is inactive: -1.07%. As for `CC1=C(C(=O)Nc2cccnc2)C(c2cccc(F)c2)n2nc(SCc3ccccc3)nc2N1` (stereo not drawn), the molecule was called inactive. For the molecule `CC(C)C(=O)N1c2ncnn2C2(CCCCC2)[C@@H]2CCCC[C@@H]21`, the “activity change, negative = inhibition” value is inactive: -8.6%. On to `COc1cc(C(=O)Nc2ccc3[nH]c(=O)sc3c2)cc(OC)c1OC`, for which the “activity change, negative = inhibition” value was inactive: 4.61%.

On to `CCCCNC(=O)c1ccc2c(c1)NC(=O)C(CS(=O)(=O)Cc1cccc(C)c1)N2` (stereo not drawn), for which the molecule was called inactive. For `COc1ccc2oc(-c3cccc(NC(=O)c4ccc(C#N)cc4F)c3)nc2c1`, the “activity change, negative = inhibition” value is inactive: 12.1%.

With `CCN1CCN(c2oc(-c3ccc(COc4ccc(C)cc4)o3)nc2C#N)CC1`, the “activity change, negative = inhibition” value was inactive: -14.6%. As to `CCCCNc1ncnc2c1nnn2C`, the “activity change, negative = inhibition” value is inactive: -3.68%. In the case of `COc1ccc(CNC(=O)c2nc(SC(C)C)ncc2Cl)cc1`, the result was inactive. On to `Cc1ccn2c(Nc3ccc4c(c3)OCO4)c(-c3ccc(N(C)C)cc3)nc2c1`, for which the “activity change, negative = inhibition” value is inactive: -12.9%. As for `O=c1c2cn[nH]c2nc(SCc2cccc(Br)c2)n1-c1ccc(Cl)cc1`, the molecule was classed as inactive. Regarding `COc1ccccc1CNC(=O)NCc1noc2ccc(C)cc12`, the “activity change, negative = inhibition” value is inactive: -8.36%. As for `CCOc1ccc(NC(=O)CC2C(=O)N(c3ccccc3)C(=O)N2C2CCCCC2)cc1` (stereo not drawn), the “activity change, negative = inhibition” value is inactive: 3.45%.

Regarding `Cc1nc(Nc2ccc(Cl)cc2)cc(-c2ccccc2)n1`, the “activity change, negative = inhibition” value was inactive: -22.4%. On to `CCOc1ccc(CCNC(=O)CCc2c(C)nc3c(-c4ccccc4)c(C)nn3c2C)cc1OCC`, for which the outcome was inactive. In the case of `COCCCNC(=O)c1sc2nc3n(c(=O)c2c1C)CCC3`, the “activity change, negative = inhibition” value is inactive: 0.411%. For the molecule `CCOC(=O)c1c(-c2ccccc2)csc1NC(=O)c1cc(-c2ccc(Br)cc2)on1`, the molecule was called inactive.

Consider `Cc1nc2ccc(S(=O)(=O)CCC(=O)Nc3ccc(C)c(C)c3)cc2s1`, for which the “activity change, negative = inhibition” value is inactive: 13.9%. As for `CCOC(=O)c1cccc(NC(=O)C2CCCN(S(=O)(=O)c3ccc4c(c3)oc(=O)n4C)C2)c1` (stereo not drawn), the outcome was inactive. Take `COc1ccc(NC(=O)/C(C#N)=C/c2cc(C)n(-c3ccc(F)cc3)c2C)cc1`: the result was inactive.

Regarding `CCc1ccc(NC(=O)C(C)n2nnc3sc(-c4ccccc4)cc3c2=O)cc1` (stereo not drawn), the “activity change, negative = inhibition” value was inactive: 0.283%.

As for `O=C(Cn1cc(S(=O)(=O)N2CCCC2)c(S(=O)(=O)N2CCCC2)c1)Nc1cccc(F)c1`, the “activity change, negative = inhibition” value is inactive: 17.5%. As for `COc1ccccc1CNC(=O)CN1C(=O)COc2ccc(S(=O)(=O)N3CCC(C)CC3)cc21`, the “activity change, negative = inhibition” value was inactive: -14.4%. Take `CCOc1ccc(C2=NC(c3ccc(OC)cc3)=Nc3ccc(Cl)cc3N2)cc1`: the “activity change, negative = inhibition” value is inactive: -19.1%. As for `C=CCC(CC=C)(CNC(=O)C(=O)Nc1cc(C)ccc1OC)c1ccc(OC)c(OC)c1`, the “activity change, negative = inhibition” value was inactive: -3.17%. `Cc1ccc(Cl)cc1NC(=O)Cn1c(=O)n(CCCS(=O)(=O)C2CCCCC2)c(=O)c2ccccc21`: the molecule was called inactive. For `Cc1csc2nc(COC(=O)c3ccccc3NC(=O)COc3ccccc3F)cc(=O)n12`, the “activity change, negative = inhibition” value was inactive: -7.72%. For `Cc1ccc(CN(C(=O)COc2ccc(Cl)c(C)c2)C2CCS(=O)(=O)C2)o1` (stereo not drawn), the “activity change, negative = inhibition” value was inactive: -3.24%. Still for that read-out and setting: the result for `Cc1nc2nc(SCC(=O)O)nn2c(C)c1Cc1c(F)cccc1Cl` reads inactive: 4.43%.

For `Cc1nc2nncn2c(NCc2ccc(Cl)cc2)c1C`, the call was inactive. Same read-out and setting: to `Cc1ccc(-n2c(=O)c3c4c(sc3n(Cc3cccc(Cl)c3)c2=O)CCC4)cc1C` belongs “inactive”.

Take `CC(C)C(=O)N(Cc1ccccc1)S(=O)(=O)c1ccc2c(c1)oc(=O)n2C`: the “activity change, negative = inhibition” value is inactive: -0.827%.

For `COc1ccc(NS(=O)(=O)c2ccc3c(c2)CCN3C(=O)CCC(=O)O)cc1Cl`, the outcome was inactive. For `COc1ccc2cc3cc(C(=O)N4CCN(c5cccc(Cl)c5)CC4)sc3nc2c1`, the call was inactive.

Take `CCOc1ccc(NC(=O)Cn2cc(C(=O)c3ccc(CC)cc3)c(=O)c3cc(OC)c(OC)cc32)cc1`: the outcome was inactive. As to `COc1ccc(S(=O)(=O)NCCCO)cc1-c1nnc2c3ccccc3c(C)nn12`, the “activity change, negative = inhibition” value is inactive: 66.1%.

`C=CCc1cccc(C=NNC(=O)CN2CCN(Cc3ccccc3)CC2)c1O`: the “activity change, negative = inhibition” value is inactive: -18.3%. On to `COc1ccc(-c2c3c(=O)n(C)c(=O)n(C)c3c3c(-c4cccc(C)c4)nc4ccccc4n23)cc1`, for which the result was inactive. Regarding `Cc1cc(NC(=O)CCS(=O)(=O)c2cc(Br)cc3c2N(C(=O)C2CC2)CC3)ccc1Br`, the “activity change, negative = inhibition” value is inactive: -6.31%. Regarding `Cc1ccc(NC(=O)Cn2nc(-c3ccncc3)ccc2=O)cc1Cl`, the “activity change, negative = inhibition” value was inactive: 0.403%. For `CCOC(=O)c1ccc2c(c1)N(C(CC)C(=O)Nc1ccccc1OC)C(=O)c1ccccc1S2` (stereo not drawn), the result was inactive. Turning to `CC(C)CCNC(=O)CSc1nc2ccccc2nc1Cc1ccccc1`, the “activity change, negative = inhibition” value was inactive: 18.3%. Regarding `CCc1ccc(-n2c(=O)c3sc4ccccc4c3n(CC(=O)NC3CCCCC3)c2=O)cc1`, the call was inactive.

For `COc1ccc(Cn2c(=O)c3cccnc3n(CC(=O)Nc3ccc(C)c(F)c3)c2=O)cc1`, the “activity change, negative = inhibition” value was inactive: -20.9%. For `O=C(Nc1c(C(=O)Nc2ccc(F)cc2)oc2ccccc12)c1cc2ccccc2o1`, the “activity change, negative = inhibition” value is inactive: 30.4%.

Consider `CCOC(=O)c1nc(Nc2ccc(C(C)=O)cc2)c2ccccc2n1`, for which the result was inactive.

For `COc1cc2c(cc1OC)C(COc1ccc3c(C)cc(=O)oc3c1)N(C(=O)C(C)C)CC2` (stereo not drawn), the “activity change, negative = inhibition” value is inactive: 1.18%.

Values taken from PubChem BioAssay AID1963576 (National Center for Advancing Translational Sciences (NCATS), 2024).
